Results from the supplement of paper PMC7826260.
The list shows a part of the results. Each Rep nickase domain was tested in vitro on the same pool of single strands (1 h at 37 °C, 3 µM enzyme); the outer parts of the 90-letter strands are left off. A value is the log2 ratio of uncut reads to the pool without enzyme; uncut sequences lie near 0, cut ones below; no hit call is given. Shares of all reads are compared, so uncut sequences can rise above 0 when many others are cut.

Experiments:
Assay in all cases: uncleaved DNA left, log2 of reads against the no-enzyme library (log2 ratio); higher = less cleavage (more negative = more Rep cleavage of the k-mer); sequences stand for … in CTCGTCCG…ACCGGAGA
[1] = test system: T1, Rep nickase domain of Muscovy duck circovirus
T1 sequence (residues 1-111, tag not shown): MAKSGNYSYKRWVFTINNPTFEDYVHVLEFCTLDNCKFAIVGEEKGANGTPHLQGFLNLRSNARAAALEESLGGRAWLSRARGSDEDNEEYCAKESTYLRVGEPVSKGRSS
Experimental: (§1)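 A pool of 90-nt single-stranded DNAs with seven random bases just before the constant AC of the nick site (name = the seven bases) was cut by 3 µM recombinant His6-SUMO-tagged Rep nickase domain (300 nM DNA, 50 mM HEPES pH 8.0, 50 mM NaCl, 1 mM MnCl2, 1 h, 37 °C, three replicates). Uncut DNA was amplified and sequenced.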

[2] = test system: T2, Rep nickase domain of banana bunchy top virus
T2 sequence (residues 1-94, tag not shown): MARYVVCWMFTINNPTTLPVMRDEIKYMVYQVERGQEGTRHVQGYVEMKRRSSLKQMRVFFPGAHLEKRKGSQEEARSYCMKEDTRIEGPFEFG
Experimental: as §1

[3] = test system: T3, Rep nickase domain of cabbage leaf curl virus
T3 sequence (residues 1-116, tag not shown): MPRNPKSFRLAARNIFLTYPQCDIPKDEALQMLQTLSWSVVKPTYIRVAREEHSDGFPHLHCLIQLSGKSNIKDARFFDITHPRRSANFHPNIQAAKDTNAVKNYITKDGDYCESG
Experimental: as §1

[4] = test system: T4, Rep nickase domain of chickpea chlorotic dwarf virus
T4 sequence (residues 1-124, tag not shown): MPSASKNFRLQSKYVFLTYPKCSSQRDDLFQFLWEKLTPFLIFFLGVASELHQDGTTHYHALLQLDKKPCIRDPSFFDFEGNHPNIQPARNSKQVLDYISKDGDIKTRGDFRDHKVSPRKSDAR
Experimental: as §1

[5] = test system: T5, Rep nickase domain of faba bean necrotic yellows virus
T5 sequence (residues 1-98, tag not shown): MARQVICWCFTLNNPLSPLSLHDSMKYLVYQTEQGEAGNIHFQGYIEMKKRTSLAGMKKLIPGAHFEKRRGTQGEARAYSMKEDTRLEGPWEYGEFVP
Experimental: as §1

[6] = test system: T6, Rep nickase domain of maize striate mosaic virus
T6 sequence (residues 1-117, tag not shown): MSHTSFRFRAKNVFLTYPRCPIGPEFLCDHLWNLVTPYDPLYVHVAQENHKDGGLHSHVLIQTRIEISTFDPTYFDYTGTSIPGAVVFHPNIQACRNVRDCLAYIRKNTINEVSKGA
Experimental: as §1

[7] = test system: T7, Rep nickase domain of porcine circovirus 2
T7 sequence (residues 2-116, tag not shown): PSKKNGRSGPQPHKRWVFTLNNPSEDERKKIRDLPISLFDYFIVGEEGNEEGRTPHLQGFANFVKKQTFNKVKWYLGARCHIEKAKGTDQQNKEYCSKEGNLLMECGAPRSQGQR
Experimental: as §1

[8] = test system: T8, Rep nickase domain of tomato yellow leaf curl virus
T8 sequence (residues 1-136, tag not shown): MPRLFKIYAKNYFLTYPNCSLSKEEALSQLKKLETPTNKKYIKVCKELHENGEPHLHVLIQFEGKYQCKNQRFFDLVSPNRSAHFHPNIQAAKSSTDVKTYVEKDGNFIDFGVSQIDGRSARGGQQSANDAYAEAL
Experimental: as §1

[9] = test system: T9, Rep nickase domain of wheat dwarf virus
T9 sequence (residues 1-137, tag not shown): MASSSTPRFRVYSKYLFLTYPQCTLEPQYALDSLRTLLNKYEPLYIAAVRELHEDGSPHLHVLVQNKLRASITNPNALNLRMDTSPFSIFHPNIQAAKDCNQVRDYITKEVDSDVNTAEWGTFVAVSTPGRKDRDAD
Experimental: as §1

| Sequence | uncleaved DNA left (log2) [1] | uncleaved DNA left (log2) [2] | uncleaved DNA left (log2) [3] | uncleaved DNA left (log2) [4] | uncleaved DNA left (log2) [5] | uncleaved DNA left (log2) [6] | uncleaved DNA left (log2) [7] | uncleaved DNA left (log2) [8] | uncleaved DNA left (log2) [9] |
| --- | --- | --- | --- | --- | --- | --- | --- | --- | --- |
| TCGCATA | -0.0671 | -0.0635 | -0.0419 | -0.847 | -0.0637 | -0.575 | -0.251 | -0.0878 | -0.148 |
| GAACCCC | -0.179 | 0.0118 | 0.312 | -0.186 | 0.0955 | 0.919 | -0.58 | 0.143 | 0.111 |
| CTTGATT | -0.217 | -1.07 | -0.201 | -2.32 | -0.216 | -0.688 | -3.36 | -0.0883 | -0.261 |
| AGAGGCC | -0.0734 | -0.088 | 0.114 | 0.443 | -0.0666 | 0.132 | -0.101 | -0.114 | -0.17 |
| CTTGCGA | -0.0631 | -0.00503 | -0.681 | -0.242 | -0.00442 | -0.614 | 0.0954 | 0.0503 | -0.0879 |
| TGTGTGT | 0.197 | 0.0126 | -0.111 | -0.508 | 0.0593 | -0.658 | -0.00297 | 0.115 | 0.0131 |
| TTTCGAT | 0.0772 | -0.0206 | 0.19 | -0.0743 | -0.0145 | -0.0346 | -0.0474 | -0.0168 | -0.046 |
| AACATTT | 0.00295 | -0.326 | -1.03 | -2.68 | 0.0229 | -1.09 | -3.35 | 0.0268 | -0.0978 |
| TTCCCAT | -0.0437 | 0.068 | 0.281 | -0.406 | -0.00863 | -0.167 | -0.244 | 0.115 | 0.0558 |
| CGATAAT | -2.46 | -0.0907 | -0.186 | -1.04 | 0.0114 | -0.205 | -2.92 | 0.00881 | -0.115 |
| GCCTCGA | 0.152 | -0.0488 | -0.0272 | -0.0142 | 0.0536 | -0.54 | 0.0168 | 0.0243 | -0.0557 |
| GACAGAC | 0.0526 | 0.0126 | 0.429 | 1.26 | 0.0996 | 1.09 | 0.266 | 0.0234 | 0.128 |
| ATACCAA | 0.0546 | -0.00577 | 0.00445 | 0.0117 | 0.0493 | -0.0145 | 0.0761 | 0.0579 | 0.0615 |
| CGCCCTC | -0.00295 | 0.0373 | 0.228 | 0.232 | -0.0766 | 0.336 | -0.245 | -0.111 | -0.0652 |
| AATTAGT | -3.92 | -3.99 | -1.04 | -2.28 | -0.304 | -1.5 | -4.11 | -0.0972 | -0.298 |
| AGTTCTT | -2.62 | -1.64 | -0.0911 | -1.55 | -0.374 | 0.18 | -3.49 | 0.00063 | -0.0429 |
| CATGGTC | -0.0317 | -0.0742 | -0.0359 | -0.0637 | -0.0926 | -0.591 | -0.1 | -0.0748 | -0.0374 |
| TCTTTAC | 0.173 | 0.012 | 0.0881 | -1.58 | 0.0488 | -0.318 | -0.0014 | 0.0491 | 0.158 |
| GAACCAC | 0.0144 | -0.0287 | 0.141 | 0.0132 | 0.0171 | 0.654 | -0.246 | 0.0321 | 0.116 |
| ACTCTCT | -0.14 | -0.192 | -0.459 | -2.19 | -0.127 | -0.616 | -0.701 | -0.308 | -0.1 |
| GGAAAAA | 0.222 | 0.139 | 0.817 | 1.71 | 0.162 | 1.94 | 0.314 | 0.227 | 0.329 |
| GTGAAAA | -0.0895 | 0.0669 | 0.187 | 1.04 | -0.0368 | 1.6 | 0.0898 | 0.0287 | 0.11 |
| CGGCCGC | -0.0584 | 0.0581 | -0.0874 | -0.025 | 0.00876 | -0.157 | -0.00422 | -0.0223 | -0.0191 |
| AGTTGAA | -0.113 | -0.105 | -0.0396 | 0.0962 | -0.00562 | -0.339 | -0.529 | -0.0999 | -0.064 |
| TCATCCA | -0.0555 | 0.0447 | 0.0847 | -1.1 | -0.0299 | -0.293 | -0.13 | -0.0447 | -0.067 |
| TTTTTGG | 0.113 | 0.026 | 0.199 | 0.268 | 0.0434 | 0.0316 | 0.108 | -0.0303 | -0.0285 |
| GCATAAA | -0.0516 | 0.0315 | 0.0774 | 0.397 | 0.0127 | -0.196 | 0.0871 | 0.0982 | 0.148 |
| ACGGATG | 0.155 | 0.017 | -0.246 | 0.171 | 0.0576 | -0.345 | 0.174 | -0.101 | -0.0984 |
| TTATAAG | 0.113 | 0.0295 | -0.711 | -0.317 | 0.108 | -1.12 | 0.261 | 0.0923 | 0.0481 |
| TGGGATA | -0.0749 | -0.00383 | 0.572 | 1.73 | -0.076 | 1.97 | 0.0831 | -0.0302 | 0.000935 |
